Test results from the supplement of paper PMC3334620.
In all, about 33,000 sequences were measured (“E-score (-0.5 to 0.5)”: median about -0.036, highest 2% from about 0.37 on). This is one part of the list.

The sequences below were run against T1, Yer064c (UniProt P40041) (assay: PBM E-score (8-mer binding enrichment) (E-score (-0.5 to 0.5)); higher = stronger / more preferred TF binding; most listed sequences are background and not binding sites). Conditions: protein concentration: 200 nM; construct: GST-full length.
T1 sequence: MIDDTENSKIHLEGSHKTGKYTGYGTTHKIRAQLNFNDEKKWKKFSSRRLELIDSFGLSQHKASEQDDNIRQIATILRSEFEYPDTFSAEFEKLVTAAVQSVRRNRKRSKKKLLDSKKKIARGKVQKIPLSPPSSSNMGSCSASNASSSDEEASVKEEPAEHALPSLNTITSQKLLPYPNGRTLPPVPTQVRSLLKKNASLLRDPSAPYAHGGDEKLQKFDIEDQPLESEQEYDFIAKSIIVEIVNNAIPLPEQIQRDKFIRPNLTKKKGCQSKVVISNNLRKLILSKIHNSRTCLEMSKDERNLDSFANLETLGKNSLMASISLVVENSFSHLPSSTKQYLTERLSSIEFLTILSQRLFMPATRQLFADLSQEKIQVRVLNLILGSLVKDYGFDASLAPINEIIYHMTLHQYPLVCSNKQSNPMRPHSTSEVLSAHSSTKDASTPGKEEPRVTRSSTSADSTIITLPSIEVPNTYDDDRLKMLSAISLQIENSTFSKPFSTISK
In short: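 Bound GST-tagged yeast transcription factors, applied at about 100-200 nM to double-stranded universal all-10-mer Agilent arrays, were detected with fluorescent anti-GST. Scans were normalised with masliner. A modified Wilcoxon-Mann-Whitney statistic, the E-score, was assigned to each ungapped eight-base word pooled with its reverse complement by the Universal PBM Analysis Suite.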

Row | Sequence | PBM E-score
1 | CCTGAACG | -0.212
2 | CTAACGAG | 0.013
3 | ACACACAA | 0.0611
4 | CGAGGACC | -0.106
5 | AGCTGAGG | -0.0711
6 | CCGGTTCG | -0.206
7 | CGAGCGCC | -0.232
8 | ACCCCTAA | -0.0884
9 | ACAAACGT | -0.117
10 | ACAAAGGT | -0.0848
11 | GTTAAAAC | -0.0289
12 | TTCTAAAA | -0.00587
13 | CATAACGG | 0.00763
14 | CGCGTTAC | -0.196
15 | GACCTAGA | -0.0369
16 | CGTCCTAA | 0.129
17 | CATTTCCC | -0.0886
18 | ATAATGCC | 0.045
19 | TACTCTGA | 0.156
20 | GCGTGCAC | -0.0897
21 | ATGTTGGA | 0.109
22 | GATACATC | 0.0889
23 | ATGTCTAC | 0.197
24 | AAAAAACT | 0.0554
25 | GGTTTTCA | -0.0126

Row | Sequence | PBM E-score
26 | GCTTTCCA | -0.116
27 | ACTTTAGC | 0.104
28 | AGGGGAAC | -0.202
29 | CTCCAAAG | 0.103
30 | AAGATGCC | -0.214
31 | AGGTATGG | -0.0916
32 | CCTACTCG | -0.0344
33 | CATAAACC | 0.113
34 | AGGCCGAG | -0.0585
35 | TGGCTGAA | -0.00309
36 | ATGTCGGG | -0.0729
37 | CAGATCGA | 0.00612
38 | GGAAATGA | 0.0982
39 | GATAAGGA | 0.0693
40 | AACAACTG | -0.0896
41 | AACACTAA | 0.0299
42 | CGCTAGCA | -0.243
43 | AATCACGT | 0.382
44 | GCACGAAC | 0.0225
45 | AGAGCACG | -0.101
46 | CCATCTAA | -0.0644
47 | GGAATCAC | 0.418
48 | AAATTAAG | 0.00171
49 | AGTTATTA | 0.0831
50 | CCATGCGG | -0.154

Row | Sequence | PBM E-score
51 | CTATAACC | -0.119
52 | CTTCCTGC | -0.031
53 | CAGTGCTA | 0.0366
54 | GTCATGCA | 0.268
55 | CCCCCACG | -0.0968
56 | ACATCGGA | 0.0356
57 | AGCCTGTG | -0.177
58 | CACTGCCG | -0.131
59 | GACTTTAA | 0.248
60 | ATCTCTAC | -0.0637
61 | AGACAGGG | -0.179
62 | ACAACTTA | 0.0367
63 | ACCTTGTG | 0.0552
64 | ATAACAAA | 0.0086
65 | GTCCGTTA | -0.081
66 | CGAATAGC | -0.0407
67 | AAAATACA | 0.0146
68 | CAGTCACC | 0.423
69 | GAAGGGCA | -0.131
70 | ACGGGTCT | -0.178
71 | AGGATTTC | -0.125
72 | AAGTAGCA | 0.0502
73 | CCTGTCAG | -0.151
74 | ATGGAACC | -0.145
75 | ACTGCGCC | 0.0541

Row | Sequence | PBM E-score
76 | ACCCCTCT | -0.138
77 | AGCTAGAG | -0.0815
78 | CGGCTTTC | -0.119
79 | ACTCCTTC | 0.189
80 | ACCGTGTG | 0.0319
81 | GAGGTCTA | -0.143
82 | AATTACTC | 0.154
83 | CGCAATCC | -0.0183
84 | GTTAGGCA | -0.0628
85 | ACTGTCAG | -0.0261
86 | CGTTGGCA | -0.141
87 | AACATCGT | -0.133
88 | CTAGAGAC | -0.0425
89 | AACTACCG | -0.178
90 | GACCTCTC | -0.207
91 | CTCGGAAG | 0.0813
92 | GATAAACC | -0.00797
93 | GGGGTTGA | 0.112
94 | ACATGTGC | 0.0387
95 | CGGGTCGA | -0.00387
96 | AAAGGGTG | -0.155
97 | CCTACCGA | -0.0791
98 | GATGCTGC | -0.173
99 | ACGGATTG | -0.309
100 | GCATTGCA | 0.0189

Row | Sequence | PBM E-score
101 | AAGGGCAC | -0.236
102 | CGGAGTCC | 0.307
103 | CGCGGCTA | -0.0469
104 | ACGCAACC | -0.121
105 | CTCTAAAG | -0.0556
106 | AGCTCATG | 0.072
107 | ACTCATAA | 0.375
108 | CTGACGCC | -0.216
109 | CTGCCCCC | -0.144
110 | AAAGGTAG | -0.172
111 | ACCACCTA | -0.107
112 | ATCCCTAG | 0.0111
113 | ACGCGGTC | -0.0557
114 | CACTGAAC | 0.048
115 | AGGACTCC | 0.335
116 | AGCTTGCC | -0.256
117 | AACGAGCC | -0.115
118 | CGCCCCAC | -0.235
119 | AGTATATA | 0.183
120 | GCGATGGA | -0.103
121 | CCACTAGA | -0.195
122 | AGACTGTC | 0.149
123 | CCGGCTAC | -0.233
124 | ACGTGGAG | -0.189
125 | CCCACGAG | 0.0381

Row | Sequence | PBM E-score
126 | CTTGCCTC | -0.113
127 | CCTCTTCG | -0.0971
128 | ATGCCCTA | -0.222
129 | CCAAATAG | 0.0808
130 | CTGAAAAC | -0.16
131 | CGGTGTAC | -0.152
132 | CATAAATA | 0.0498
133 | GAGGTATC | -0.136
134 | ATACTGAC | 0.148
135 | TCGAACGA | -0.0348
136 | ACCCATCC | 0.165
137 | CATTAGTA | 0.257
138 | GAGCAATA | -0.131
139 | AGCACTTC | -0.317
140 | AAGTGGGG | -0.201
141 | TCGATAGA | 0.0137
142 | TCATCAAA | 0.248
143 | TCGTTAAA | 0.0153
144 | CACATCTC | 0.04
145 | AATCGATA | 0.114
146 | AGGCACCA | -0.271
147 | ACCGTTAT | 0.0224
148 | ACTCATCA | 0.412
149 | CCTCCAAG | -0.0691
150 | ATTAACAA | 0.202

Row | Sequence | PBM E-score
151 | GAACACCA | -0.0595
152 | AGAGCCCG | 0.0423
153 | ACGCCTAC | -0.155
154 | AATAGTTA | -0.0358
155 | GAATGACC | -0.0646
156 | CCTTCCGC | -0.177
157 | GAGGATCC | -0.163
158 | GTCTCGTA | 0.0767
159 | ACACATGC | 0.105
160 | CTCAAGCA | -0.0055
161 | AATCATGC | 0.432
162 | TAAACAGA | 0.134
163 | ATCACCTA | 0.127
164 | CATTCTGC | 0.0792
165 | AAGTGGAG | 0.0616
166 | ATCCGTTC | -0.0715
167 | AACGGTGA | 0.123
168 | AATACAAT | -0.0991
169 | CACGACGA | 0.044
170 | CAAATTAA | 0.154
171 | ATGAGATC | 0.0385
172 | CAAAACGA | 0.0931
